Over roughly 1,000 compounds, “relative growth recovery (pomalidomide 10 uM = 100%, DMSO = 0%)” has its median near -1.6; the highest 2% begin near 21. The list shows a part of the results.

For the experiment, the system named is HEK293FT dCK*-IKZF1. The experiment is described as follows: relative growth recovery (pomalidomide 10 uM = 100%, DMSO = 0%); higher = more growth rescue (IKZF1 fusion degradation). The following applies: compound concentration: 5 uM; AraC concentration: 0.3 uM; overnight pretreatment + 4 days AraC. As for the experimental part: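 Growth recovery screen of the molecular-glue-like (Specs) library. HEK293FT cells expressing a dCK*-IKZF1 fusion (primary) or dCK* alone (counter) were pretreated overnight with compound at 5 uM, then given 0.3 uM AraC for 4 days. Hoechst nuclei were counted by imaging. Primary: normalised to pomalidomide (100%) and DMSO (0%), mean of 2 replicates. Counter: normalised to no-AraC (100%) and AraC+DMSO (0%), single replicate.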
Regarding `NC1(C(=O)N2CCC(c3cccc(Nc4ncc(-c5ccccc5)s4)n3)CC2)CC1`, the relative growth recovery is -1.21%.

As for `Cc1nc(Nc2cccc(C3CCN(C(=O)c4ccccn4)CC3)n2)sc1C`, the relative growth recovery turned out to be 0.415%.

With `COc1cc(NS(=O)(=O)c2ccc(NC(=O)/C=C/C(=O)O)cc2)nc(OC)n1`, the relative growth recovery is 5.33%.

For the compound `O=C(Nc1ccc(S(=O)(=O)Nc2ncccn2)cc1)c1ccccc1Oc1ccccc1`, the relative growth recovery came out at 0.03%.

On to `COC1CCC(C(=O)N2CCC(c3cccc(Nc4ncc(C)s4)n3)CC2)CC1` (stereo unspecified), for which the relative growth recovery was -12.6%.

In the case of `COc1cc(NS(=O)(=O)c2ccc(N/C=C\C(=O)c3cccs3)cc2)nc(OC)n1`, the relative growth recovery was -2.01%.

Consider `CCOC(=O)c1ccc(N2C(=O)c3ccc(Oc4ccc(NC(C)=O)cc4)cc3C2=O)cc1`, for which the relative growth recovery was -4.37%.

For the compound `CC(=O)N1CCC(Cc2cccc(Nc3nccs3)n2)CC1`, the relative growth recovery was -0.085%.

In the case of `CCCc1cnc(Nc2cccc(C3CN(C(=O)Cn4c(CC(C)C)nc5ccccc54)CCO3)n2)s1` (stereo unspecified), the relative growth recovery was -13.3%.

Consider `Cc1csc(Nc2cccc(C3CCN(C(=O)Cn4nc(C)cc4C)CC3)n2)n1`, for which the relative growth recovery stood at 16.9%.

On to `O=C(/C=C/c1cnc[nH]1)N1CCC(c2cc3ccccc3c(Nc3nccs3)n2)CC1`, for which the relative growth recovery was -18.3%.

For the compound `COc1ccc(/C=C(\C#N)C(=O)Nc2ccc(S(=O)(=O)Nc3ncccn3)cc2)cc1`, the relative growth recovery is -4.89%.

On to `COc1cc(NS(=O)(=O)c2ccc(NC(=O)c3c(OC)cccc3OC)cc2)nc(OC)n1`, for which the relative growth recovery is -1.76%.

As to `O=C(O)c1ccc(N2C(=O)c3ccc(Oc4ccccc4)cc3C2=O)cc1`, the relative growth recovery was -0.23%.

As for `COc1nccnc1NS(=O)(=O)c1ccc(NC(=S)NC(=O)c2cccnc2)cc1`, the relative growth recovery is -1.5%.

`O=C(Nc1ccc(S(=O)(=O)Nc2ccccn2)cc1)c1ccc(Cl)c(Cl)c1`: the relative growth recovery is -5.89%.

As to `Cc1cnc(Nc2cccc(C(CO)C3CCN(C(=O)C4CCCCC4)CC3)n2)s1` (stereo unspecified), the relative growth recovery was found to be 0.265%.

In the case of `COCC(=O)N1CCC(c2cccc(Nc3ncc(C)s3)n2)CC1`, the relative growth recovery is -19.4%.

For `Cc1ccc2[nH]nc(C(=O)N3CCCC3c3cccc(Nc4nc(C)cs4)n3)c2c1` (stereo unspecified), the relative growth recovery is -0.105%.

For `CC(=O)Nc1ccc(S(=O)(=O)Nc2cc(C)nc(C)n2)cc1`, the relative growth recovery is -1.14%.

On to `O=C(C1COCCN1)N1CCC(c2cccc(Nc3ncc(Cl)s3)n2)CC1` (stereo unspecified), for which the relative growth recovery is -20.4%.

Regarding `Cc1csc(Nc2cccc(C3CCN(CC(=O)NCc4ccccn4)CC3)n2)n1`, the relative growth recovery is -8.2%.

For the compound `Cc1cnc(Nc2cccc(CC3CCN(C(=O)CO)CC3)n2)s1`, the relative growth recovery is -16.9%.

With `Cn1cnc(S(=O)(=O)N2CCOC(c3cccc(Nc4ncc(CNC(=O)c5cccc(F)c5)s4)n3)C2)c1` (stereo unspecified), the relative growth recovery worked out at 13.5%.

`O=[N+]([O-])c1ccc(S(=O)(=O)Nc2ccc(Cl)cn2)cc1`: the relative growth recovery is -4.66%.

In the case of `Cc1cnc(Nc2cccc(C3CN(C(=O)CN(CCC(C)C)c4ccccc4)CCO3)n2)s1` (stereo unspecified), the relative growth recovery is -3.83%.

As to `CCOc1ccccc1OCC(=O)Nc1ccc(S(=O)(=O)Nc2ncccn2)cc1`, the relative growth recovery is -5.29%.

Turning to `O=C(Nc1ccc(S(=O)(=O)Nc2ncccn2)cc1)c1ccccc1Br`, the relative growth recovery is -3.06%.

Regarding `Cc1ccnc(NS(=O)(=O)c2ccc(N3C(=O)c4ccccc4C3=O)cc2)n1`, the relative growth recovery is -0.9%.

On to `CC(C)c1ccc2[nH]c3nc(SCC(=O)Nc4ccc(F)cc4)nnc3c2c1`, for which the relative growth recovery was -10.5%.

Consider `CN(CC(=O)N1CCC(c2cccc(Nc3ncc(-c4ccccc4)s3)n2)CC1)C(=O)OC(C)(C)C`, for which the relative growth recovery is -3.15%.

The values above are taken from the supplement of paper PMC12340641.
